Reference: paper PMC4336329 (PLoS ONE, 2015)
Among all 310,000 compounds or so, about 14,000 (4.5%) showed an effect of 50% or more. The effect is printed as a negative number. The list shows a part of the results.

These molecules were tested against human ether-à-go-go-related gene (hERG) potassium channel (human, UniProt Q12809) (assay: primary screen, population patch clamp on CHO cells stably expressing hERG).
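Further: peak tail current of the secondary pulse compared with the same well before compound.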

Sequence of human ether-à-go-go-related gene (hERG) potassium channel (Q12809 whole entry, looked up): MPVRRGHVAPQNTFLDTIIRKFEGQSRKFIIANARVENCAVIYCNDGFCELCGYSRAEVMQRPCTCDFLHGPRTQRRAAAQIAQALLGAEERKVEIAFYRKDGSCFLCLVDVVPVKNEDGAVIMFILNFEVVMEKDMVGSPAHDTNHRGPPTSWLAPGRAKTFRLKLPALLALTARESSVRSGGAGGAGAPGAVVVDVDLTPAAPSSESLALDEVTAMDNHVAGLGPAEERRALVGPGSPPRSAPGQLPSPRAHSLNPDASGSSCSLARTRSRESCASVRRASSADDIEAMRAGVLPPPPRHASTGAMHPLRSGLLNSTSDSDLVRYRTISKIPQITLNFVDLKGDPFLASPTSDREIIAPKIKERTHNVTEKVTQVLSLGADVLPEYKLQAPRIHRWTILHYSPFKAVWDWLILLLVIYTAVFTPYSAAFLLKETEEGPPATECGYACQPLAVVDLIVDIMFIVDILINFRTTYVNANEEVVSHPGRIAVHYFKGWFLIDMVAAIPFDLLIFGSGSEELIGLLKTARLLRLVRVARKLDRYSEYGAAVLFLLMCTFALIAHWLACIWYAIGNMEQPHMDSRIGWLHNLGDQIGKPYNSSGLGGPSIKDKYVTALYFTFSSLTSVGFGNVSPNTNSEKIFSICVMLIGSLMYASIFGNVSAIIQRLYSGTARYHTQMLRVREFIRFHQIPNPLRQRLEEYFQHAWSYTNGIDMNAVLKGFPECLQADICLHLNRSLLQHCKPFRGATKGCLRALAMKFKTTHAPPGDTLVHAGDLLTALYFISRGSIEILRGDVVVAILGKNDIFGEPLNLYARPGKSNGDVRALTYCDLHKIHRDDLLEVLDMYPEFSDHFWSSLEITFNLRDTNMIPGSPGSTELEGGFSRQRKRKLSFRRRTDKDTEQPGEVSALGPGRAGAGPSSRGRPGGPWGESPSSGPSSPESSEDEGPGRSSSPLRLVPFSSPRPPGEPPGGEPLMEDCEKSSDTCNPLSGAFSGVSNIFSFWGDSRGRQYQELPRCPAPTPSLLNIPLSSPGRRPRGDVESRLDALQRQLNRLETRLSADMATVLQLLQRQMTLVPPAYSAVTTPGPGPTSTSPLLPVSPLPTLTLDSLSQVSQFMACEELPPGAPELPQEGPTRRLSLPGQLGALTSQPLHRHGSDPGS

SMILES	hERG current change (%, negative = inhibition) at 10uM [%]
Cc1cc(NC(=O)COc2ccccc2C#N)no1	17.7
Cc1cccc(N(C)C(=O)C2CCCN2S(=O)(=O)c2cccc3nsnc23)c1 (centres unmarked)	8.06
CC(C)c1[nH]nc2c1C(c1ccco1)C(C#N)=C(N)O2 (centres unmarked)	17.6
S=C(Nc1cc(Cl)cc(Cl)c1)NC1CCN(Cc2ccccc2)CC1	-33.6
Cc1ccc(O)c(C(=O)/C=C/c2ccc3c(c2)OCCCO3)c1	-10.1
Cc1ccc2c(cnn2C(=O)CCCC(=O)NCc2cccc(F)c2)c1	3.47
CCCOc1c(Br)cc(C(=O)NCC)cc1OC	-35.2
OC(COc1ccccc1)CSc1ncn[nH]1 (centres unmarked)	-5.7
COc1ccc(/C=C/C(=O)O)cc1S(=O)(=O)NCc1ccccc1	13.8
Cc1cc(NC(=S)NC(=O)CC(C)C)ccc1Br	12.1
C=C(C)CNC(=S)NNC(=O)c1ccncc1	6.86
NC(=O)c1cc([N+](=O)[O-])ccc1NCCN1C(=O)c2ccc(C(=O)O)cc2C1=O	13.2
CC(C)N(C(=O)CSc1nc2c([nH]1)c(=O)n(C)c(=O)n2C)c1ccccc1	12.2
O=S(=O)(Nc1cccc(-c2cn3cccnc3n2)c1)c1ccccc1	-5.45
CC(=O)c1ccc(OCc2cccc(C(F)(F)F)c2)cc1O	8.99
CC(=O)Nc1ccc(C(=O)COC(=O)CN2C(=O)NC3(CCCCC3C)C2=O)cc1 (centres unmarked)	7.95
CSc1nnc(-c2cc[n+](C)cc2)n1CCO.[I-]	14
Cc1c(Cl)cccc1NC(=O)COc1ccc(S(=O)(=O)N2CCOCC2)cc1	-13.9
COC(=O)C1(O)CC(C(C)C)=NN1C(=O)c1ccc(Cl)cc1 (centres unmarked)	9.28
O=C(NCc1n[nH]c(=S)n1-c1ccc(F)cc1)c1ccc(S(=O)(=O)N2CCCC2)cc1	18.2

SMILES	hERG current change (%, negative = inhibition) at 10uM [%]
Cc1ccc(NC(=O)COC(=O)[C@H](C)NC(=O)c2ccccc2)cc1S(=O)(=O)N1CCOCC1	-11.5
CC(C)C(=O)Nc1ccc2oc(=O)ccc2c1	19.9
CC(C)OC(=O)CC1C(=O)NCCN1C(=S)NC(=O)c1ccccc1Cl (centres unmarked)	13.6
COc1ccc(-c2csc(N3CCN(Cc4ccc5c(c4)OCO5)CC3)n2)cc1	-11.3
CCOc1ccc(-n2c(=O)c3sccc3n(CC(=O)NC3CCCCC3)c2=O)cc1	9.7
O=C(NNC(=S)Nc1cccc(Cl)c1)c1ccccc1OC(F)F	1.16
COc1ccc(NC(=O)CCc2ccccc2)cc1S(=O)(=O)N1CCCCC1	12.4
CC(C)(C)C(=O)NNC(=O)CCCOc1ccc(Cl)cc1Cl	6.36
Cc1ccc2nc(C)cc(Cl)c2c1	16.9
CNC(=O)c1c[nH]n2c(=O)c(Cc3ccccc3F)c(C)nc12	16.9
O=C(NCCCN1CCOCC1)c1cc(S(=O)(=O)N2CCOCC2)c(Cl)cc1Cl	12.5
O=C(COC(=O)c1ccccc1NC(=O)c1ccco1)Nc1ccc2c(c1)OC(F)(F)O2	12.2
CCC(C)CCCCNC1=NCCS1 (centres unmarked)	-22.7
CCOC(=O)N1CCN(C(=O)c2ccccc2NC(=O)c2ccccc2Cl)CC1	3.22
COC(=O)c1ccc2ccccc2n1	12.1
CCCc1cc(=O)[nH]c(SCC(=O)c2cc(C)n(CC(F)(F)F)c2C)n1	7.55
O=C(Nc1ccncc1)c1cccc(S(=O)(=O)N2CCN(c3ccc(F)cc3)CC2)c1	-82.9
Cc1cc2c(c(=O)o1)C(C(C)C)C(C#N)=C(N)O2 (centres unmarked)	5.44
CC1=C(C(=O)OCc2ccccc2)C(/C=C/c2ccccc2)NC(=S)N1 (centres unmarked)	5.06
Cc1cc(CSc2ccccc2)ccc1NC(=O)COc1ccccc1	9.72

SMILES	hERG current change (%, negative = inhibition) at 10uM [%]
Cc1ccc(CNC(=O)c2ccc(NS(=O)(=O)c3cccs3)cc2)cc1	-0.484
CCc1nc2sc3ccccc3c(=O)c2c(=O)n1Cc1ccc(OC)cc1	4.19
CCC(C)[C@H](NC(=O)N1CCC(C)CC1)C(=O)O (some centres unmarked)	0.689
COc1ccccc1OC(=O)CN1C(=O)c2ccccc2C1=O	-1.83
Cc1cc(N2CCN(C)CC2)ccc1NC(=O)c1cccc(S(=O)(=O)N2CCc3ccccc3C2)c1	0.654
COc1cc2c(cc1OC)C(C)N(C(=O)C1COc3ccccc3O1)CC2 (centres unmarked)	-35.3
O=c1c2ccccc2nc2c3ccccc3ncn12	6.37
CC(C)CC(=O)Nc1ccc(S(=O)(=O)N2CCCC2)cc1	17.1
O=C(N/N=C/c1ccc(O)cc1)NC12CC3CC(CC(C3)C1)C2	-55.7
O=C1NC2c3ccccc3C(=O)N2c2c1cnn2-c1ccccc1 (centres unmarked)	-12.7
O=C(CCN1C(=O)/C(=C\c2cccs2)SC1=S)Nc1ccccn1	8.73
O=S(=O)(c1ccccc1)c1cnc2ccccc2c1	6.72
O=C(COc1ccc(Cl)c(Cl)c1)NC1CCS(=O)(=O)C1 (centres unmarked)	2.02
COC(=O)C1(C)NC(c2ccco2)C2C(=O)N(c3ccc(F)cc3)C(=O)C21 (centres unmarked)	30.3
COc1ccc(N=C(C)c2c(O)[nH]c(=O)[nH]c2=O)cc1	21.6
O=C(CCl)Nc1cccc(S(=O)(=O)NC2=NCCC2)c1	-0.632
O=C(NCc1ccc(F)cc1Cl)C1CC(=O)N(C2CCCCCCC2)C1 (centres unmarked)	14.6
Oc1ccc2ccccc2c1CN1CCOCC1	-6.06
CCc1ccc(NC(=O)CCn2c(=O)c3cccn3c3ccccc32)cc1	-8.24
